Source: ChEMBL document CHEMBL5606460, “ASAP - DENV-2 NS2B-NS3 protease fluorescence single point” (2024)
The campaign covered roughly 2,000 compounds. About 110 (5.5%) showed an effect of 50% or more. Some of the results follow.

Target: Genome polyprotein (dengue virus type 2) (UniProt P29990)
[1] = Thailand/16681/1984, Concentration 25.0 uM, Number of replicates 1.0

OB(O)c1cccc(-c2noc([C@H]3CCN4CCC[C@H]4C3)n2)c1
inhibition (Thailand/16681/1984, Concentration 49.5 uM, Number of replicates 2.0, Standard deviation 10.721987987903457 %): 1.7%
inhibition (Thailand/16681/1984, Concentration 99.01 uM, Number of replicates 2.0, Standard deviation 0.014886266894047772 %): -2.79%
inhibition (Thailand/16681/1984, Concentration 198.0 uM, Number of replicates 2.0, Standard deviation 1.9724261487764787 %): -4.29%

COc1cc(C(=O)N(C)C)nc(N2CCNCC2)n1
inhibition (Thailand/16681/1984, Concentration 49.5 uM, Number of replicates 2.0, Standard deviation 4.026406870890022 %): -3.23%
inhibition (Thailand/16681/1984, Concentration 99.01 uM, Number of replicates 2.0, Standard deviation 2.6098419358385048 %): -4.25%
inhibition (Thailand/16681/1984, Concentration 198.0 uM, Number of replicates 2.0, Standard deviation 2.250930669275132 %): -2.7%

Cc1cc(CO)c2cccc(CC(=O)NCC(N)=O)c2n1
inhibition (Thailand/16681/1984, Concentration 49.95 uM, Number of replicates 2.0, Standard deviation 1.3653333333441007 %): -7.85%
inhibition (Thailand/16681/1984, Concentration 99.9 uM, Number of replicates 2.0, Standard deviation 0.5261932884148693 %): -6.61%

O=Cc1ccc(N2CCC(C(=O)Nc3ccccc3I)CC2)cc1
inhibition [1]: 13.5%

O=Cc1ccc(N2CCC(C(=O)NCCc3cccc4ccccc34)CC2)cc1
inhibition [1]: 11.1%

COc1ccc(S(=O)(=O)N[C@H]2CC[C@H](C(=O)Nc3nc4ccccc4s3)CC2)cc1
inhibition (Thailand/16681/1984, Concentration 49.5 uM, Number of replicates 2.0, Standard deviation 3.075987766242933 %): 3.33%
inhibition (Thailand/16681/1984, Concentration 99.01 uM, Number of replicates 2.0, Standard deviation 2.9677873652214015 %): 4.33%
inhibition (Thailand/16681/1984, Concentration 198.0 uM, Number of replicates 2.0, Standard deviation 2.5754934344138842 %): 4.36%

c1ccc2c(CN3CCC(c4ccn[nH]4)CC3)c[nH]c2c1
inhibition (Thailand/16681/1984, Concentration 49.5 uM, Number of replicates 2.0, Standard deviation 1.6296089724183547 %): 1.05%
inhibition (Thailand/16681/1984, Concentration 99.01 uM, Number of replicates 2.0, Standard deviation 0.6845016983093661 %): 1.06%
inhibition (Thailand/16681/1984, Concentration 198.0 uM, Number of replicates 2.0, Standard deviation 0.1575177771632809 %): 2.42%

Cc1cc(CCNC(=O)[C@]2(c3ccc(F)cc3)CCCNC2)c2cn[nH]c2c1
inhibition (Thailand/16681/1984, Concentration 49.5 uM, Number of replicates 2.0, Standard deviation 0.014046825478078263 %): -0.005%
inhibition (Thailand/16681/1984, Concentration 99.01 uM, Number of replicates 2.0, Standard deviation 0.7694538976922883 %): 1.15%
inhibition (Thailand/16681/1984, Concentration 198.0 uM, Number of replicates 2.0, Standard deviation 0.5010032971716664 %): 2.71%

Cc1ccc(OC2CCN(C(=O)C3CCN(c4ccc(C=O)cc4)CC3)CC2)cc1
inhibition [1]: 11.3%

O=Cc1ccc(N2CCC(C(=O)NCc3ccccc3Br)CC2)cc1
inhibition [1]: 12.3%

Cc1cnccc1NC(=O)c1cccc(C(F)(F)F)n1
inhibition (Thailand/16681/1984, Concentration 49.5 uM, Number of replicates 2.0, Standard deviation 0.6191824281934856 %): 0.024%
inhibition (Thailand/16681/1984, Concentration 99.01 uM, Number of replicates 2.0, Standard deviation 1.7542746720133946 %): -0.908%
inhibition (Thailand/16681/1984, Concentration 198.0 uM, Number of replicates 2.0, Standard deviation 1.379232208237382 %): -0.988%

Cc1cnccc1NC(=O)c1cc(C2CC2)n(C)n1
inhibition (Thailand/16681/1984, Concentration 49.5 uM, Number of replicates 2.0, Standard deviation 1.4459585686715004 %): -4.02%
inhibition (Thailand/16681/1984, Concentration 99.01 uM, Number of replicates 2.0, Standard deviation 1.900270069776252 %): -4.04%
inhibition (Thailand/16681/1984, Concentration 198.0 uM, Number of replicates 2.0, Standard deviation 1.854374849146193 %): -3.56%

O=Cc1ccc(N2CCC(C(=O)N3CCN(c4ccccc4O)CC3)CC2)cc1
inhibition [1]: 15.6%

CNC(=O)c1cc(Cl)ccc1NS(=O)(=O)Cc1ccccn1
inhibition (Thailand/16681/1984, Concentration 49.5 uM, Number of replicates 2.0, Standard deviation 0.01719051939583537 %): -6.14%
inhibition (Thailand/16681/1984, Concentration 99.01 uM, Number of replicates 2.0, Standard deviation 1.0309591190468002 %): -9.71%

c1ccc2c([C@H]3CCN(Cc4c[nH]cn4)C3)c[nH]c2c1
inhibition (Thailand/16681/1984, Concentration 49.5 uM, Number of replicates 2.0, Standard deviation 0.24792192428217835 %): -3.79%
inhibition (Thailand/16681/1984, Concentration 99.01 uM, Number of replicates 2.0, Standard deviation 0.3699758258218466 %): -3.65%
inhibition (Thailand/16681/1984, Concentration 198.0 uM, Number of replicates 2.0, Standard deviation 0.08534231061273911 %): -3.11%

Cc1cc(CO)c2cccc(N3CCCNCC3)c2n1
inhibition (Thailand/16681/1984, Concentration 49.95 uM, Number of replicates 2.0, Standard deviation 0.05404827559340029 %): -0.635%
inhibition (Thailand/16681/1984, Concentration 99.9 uM, Number of replicates 2.0, Standard deviation 1.5559145545209045 %): 2.25%

Cc1cc(CO)c2cccc(Cc3cccc(C(=O)NCc4ccc(S(N)(=O)=O)cc4)c3)c2n1
inhibition (Thailand/16681/1984, Concentration 49.95 uM, Number of replicates 2.0, Standard deviation 0.214877109175697 %): 5.4%
inhibition (Thailand/16681/1984, Concentration 99.9 uM, Number of replicates 2.0, Standard deviation 0.2579967069502225 %): 18%

O=C(/C=C/c1ccccc1)C(=O)N1CCN(CCc2ccccc2)CC1
inhibition (Thailand/16681/1984, Concentration 49.5 uM, Number of replicates 2.0, Standard deviation 1.1058163895680901 %): -0.075%
inhibition (Thailand/16681/1984, Concentration 99.01 uM, Number of replicates 2.0, Standard deviation 1.051850300329286 %): 3.22%
inhibition (Thailand/16681/1984, Concentration 198.0 uM, Number of replicates 2.0, Standard deviation 0.9821847629012651 %): 9.52%

Cc1cc(CO)c2cccc(Cc3cccc(NC(=O)c4cc(C(F)F)nn4C)c3)c2n1
inhibition (Thailand/16681/1984, Concentration 49.95 uM, Number of replicates 2.0, Standard deviation 0.39387678731348036 %): 0.181%
inhibition (Thailand/16681/1984, Concentration 99.9 uM, Number of replicates 2.0, Standard deviation 0.5891262882617602 %): 4.33%

Cc1c(C(=O)NCCn2cnnn2)ccc(O)c1NC(=O)c1ccncc1F
inhibition (Thailand/16681/1984, Concentration 49.5 uM, Number of replicates 2.0, Standard deviation 1.5154199046184862 %): -2.03%
inhibition (Thailand/16681/1984, Concentration 99.01 uM, Number of replicates 2.0, Standard deviation 2.1579915683424105 %): -1.61%
inhibition (Thailand/16681/1984, Concentration 198.0 uM, Number of replicates 2.0, Standard deviation 2.6898834373140286 %): -0.852%
